Results reported in PubChem BioAssay AID686979 (National Center for Advancing Translational Sciences (NCATS), 2013).
Several values for one entry are separate records, joined by “and”; a condition that tells them apart may be missing. Equal entries are not always repeated. In all, about 420,000 compounds went through this assay and about 50,000 (12%) were called active. Inconclusive results, whose numbers are uncertain, are shown with a selection of clear calls. Calls come from the whole dose curve; as a rule, active = well fitted inhibition curve with a large enough effect; inconclusive = small, poorly fitted or top-dose-only effect; inactive = flat fitted curve, though single readings scatter. Potencies of inconclusive entries are doubtful fits and often do not repeat.

Test: qHTS for Inhibitors of human tyrosyl-DNA phosphodiesterase 1 (TDP1): qHTS in cells in presence of CPT; note: nearly all actives have a fitted effect of over 55% in size
Settings: chicken DT40 Tdp1-/-;hTDP1 cells + 20 nM CPT, ATP luminescence, 48 h; activity change, negative = growth inhibition: at 46.2 µM (top of the series) unless noted
Outline: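 Cell growth measured by CellTiter-Glo luminescence after a minimum 48 h, 37 C compound exposure with 20 nM CPT in Tdp1-knockout DT40 cells stably expressing hTDP1, seeded 400/well; qHTS titration format.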
% is set by controls: 0 for no effect and ±100 for the full control effect; potency is the fitted concentration of half-maximal effect; tags give direction and shape of the fitted curve.

Row | SMILES | Potency | activity change, negative = growth inhibition
1 | OCC(Cc1ccccc1)Nc1c2ccccc2nc2ccccc12 (stereo not given) | inconclusive: 18.4 µM [inhibitor, single point] | 
2 | Cc1ccc(OCc2cc(C(=O)NCC(C)c3ccccc3)no2)cc1C (stereo not given) | inconclusive: 13 µM [inhibitor, single point] | 
3 | Cc1csc(NC(=O)CCc2c(C)nc3cc(-c4ccc(Cl)cc4)nn3c2C)n1 | active: 18.4 µM | 
4 | COc1ccc2c(CC(=O)OCC(=O)Nc3ccc4c(c3)OCO4)coc2c1 | inconclusive: 29.1 µM [inhibitor, single point] | 
5 | CCc1ccc(NC(=O)CSc2ccc(-c3ccccn3)nn2)cc1 | inconclusive: 18.4 µM [inhibitor, single point] and inconclusive: 20.6 µM [inhibitor, single point] | 
6 | CCOc1ccc(NC(=O)CN2CCN(CC(=O)c3ccc(OCC)cc3)CC2)cc1 | inconclusive: 18.4 µM [inhibitor, single point] | 
7 | COC(=O)Oc1nsnc1N1CCOCC1 | active: 23.1 µM | 
8 | COC(=O)c1ccc2nc(-c3cccc(Br)c3)c(Cc3ccc(OC)cc3C)n2c1 | inconclusive: 13 µM [inhibitor, partial curve] | 
9 | O=C(C(=NNc1ccccc1)C(=S)Nc1ccccc1)c1ccccc1 | active: 29.1 µM | 
10 | CCNC(=O)CSc1nnc(C2CC2)n1-c1ccccc1 |  | inactive: 5.18%
11 | COc1ccc(/C=C/C(=O)Oc2cccc(/C=N/NC(=O)Cc3ccc(Br)cc3)c2)cc1 | inconclusive: 18.4 µM [inhibitor, single point] | 
12 | CC1CCc2sc(C(=O)N(C)CC(=O)Nc3cccc(F)c3)cc2C1 (stereo not given) | inconclusive: 29.1 µM [inhibitor, single point] | 
13 | O=C(Nc1ccc(NC(=O)C2CCCCC2)nc1)c1cccc(F)c1 | inconclusive: 16.4 µM [inhibitor, single point] | 
14 | O=C(NC(=S)NC1CCCc2ccccc21)c1ccco1 (stereo not given) | active: 16.4 µM | 
15 | CCOC(=O)c1c(/N=C/c2cc([N+](=O)[O-])ccc2O)sc(C)c1C |  | inactive: -3.07%
16 | CCCNC(=O)NC(=O)CSc1nc2ccccc2n1CC(C)C |  | inconclusive: -35.4% [inhibitor]
17 | Cc1cccc(-c2nc3c4ccccc4n(Cc4cccc(Cl)c4)c(=O)n3n2)c1 | active: 20.6 µM | 
18 | CCOC(=O)C(CSCC(=O)c1ccc(Cl)cc1Cl)NC(=O)OC(C)(C)C (stereo not given) |  | inactive: -0.447%
19 | O=C(NCCc1ccccc1F)C1C(=O)Nc2ccccc2C(=O)N1C1CCCCC1 (stereo not given) |  | inactive: 6.43%
20 | COc1ccccc1N1C(=O)C2C(C(=O)c3ccccc3)=NN(c3ccccc3OC)C2C1=O (stereo not given) |  | inactive: 4.84%
